PubChem BioAssay AID624296 (National Center for Advancing Translational Sciences (NCATS), 2012)
Screen size: about 350,000 compounds; about 9,900 (2.8%) were called active. The inconclusive results got no clear call from the source; some entries with a clear call stand among them for comparison. The call rests on the fitted dose curve; in most records, active means well fitted activation curve with a large enough effect; inconclusive means small, poorly fitted or top-dose-only effect; inactive means no such curve, though single readings can be large or run the other way. Potencies of inconclusive entries are left out as doubtful fits.

Test: A quantitative high throughput screen for small molecules that induce DNA re-replication in MCF 10a normal breast cells. Further: nearly all actives have a fitted effect of over 50% in size.
Details: MCF 10A DNA re-replication, Hoechst nuclear intensity, 48 h; series mostly up to 46.1 µM
Potency means the concentration at half of the fitted maximal effect; tags describe the fitted curve by direction and shape.

**Q.** Which Potency does the source give for Oc1c(Br)cc(Br)cc1/C=N/c1nc2c(s1)CCCC2 here?
**A.** inconclusive [activator, single point]

**Q.** Which Potency does the source give for Cc1ccc(C(=O)N/C(=C/c2ccc(-c3ccc(Br)cc3)o2)C(=O)NC2CCS(=O)(=O)C2)cc1 (stereo not drawn) here?
**A.** inconclusive [activator, single point]

**Q.** For N=c1c(S(=O)(=O)c2ccc(Cl)cc2)cc2c(=O)n3ccccc3nc2n1CC1CCCO1 (stereo not drawn), which Potency is on record?
**A.** inconclusive [activator, partial curve, poor fit]

**Q.** With CN(CCOc1ccc(Cl)cc1)CC(=O)Nc1ccc(OC(F)F)cc1 as the molecule, how does the Potency read?
**A.** inactive

**Q.** With COc1cc(Br)cc(C=Nc2cccc(C(F)(F)F)c2)c1O as the molecule, how does the Potency read?
**A.** active: 20.6 µM

**Q.** For O=C(O)C1=CC[C@@H](c2ccc(Cl)cc2)N(S(=O)(=O)c2ccc(Cl)cc2)[C@H]1c1ccc(F)cc1, which Potency is on record?
**A.** inconclusive [activator, partial curve, poor fit]

**Q.** Which Potency does the source give for Nc1cc(N)nc(SCC(=O)NCc2ccco2)n1 here?
**A.** inconclusive [activator, single point]

**Q.** Which Potency does the source give for CNC(=O)[C@H]1O[C@@H](n2cnc3c(NCc4cccc(I)c4)nc(Cl)nc32)[C@H](O)[C@@H]1O here?
**A.** inconclusive [activator, partial curve, poor fit]

**Q.** With CCSc1nnc(NC(=O)CSc2nncc(=O)n2N)s1 as the molecule, how does the Potency read?
**A.** inconclusive [activator, single point]

**Q.** For Clc1cccc(CSc2ncnc3c2ncn3C2CCCCO2)c1 (stereo not drawn), which Potency is on record?
**A.** inconclusive [activator, single point]

**Q.** For CCOC(=O)C1CCN(C2=C(NS(=O)(=O)c3ccc(Cl)cc3)C(=O)c3ccccc3C2=O)CC1, which Potency is on record?
**A.** inconclusive [activator, single point]

**Q.** With CC1(C)CC(=O)c2c(oc3ccc(NS(=O)(=O)c4cccc5cccnc45)cc23)C1 as the molecule, how does the Potency read?
**A.** inconclusive [activator, single point]

**Q.** For c1csc(C2Nc3ccccc3-c3nc4ccccc4n32)c1 (stereo not drawn), which Potency is on record?
**A.** inconclusive [activator, full curve, poor fit]

**Q.** Which Potency does the source give for Cc1nc(Nc2ccc(C(=O)O)cc2)nc(Nc2ccc(C(=O)O)cc2)c1[N+](=O)[O-] here?
**A.** inactive

**Q.** With Cn1c(=O)oc2cc(NC(=O)CCl)ccc21 as the molecule, how does the Potency read?
**A.** inactive

**Q.** For COc1ccc(NC(NC(=O)c2ccc(OC)cc2)C(Cl)(Cl)Cl)cc1 (stereo not drawn), which Potency is on record?
**A.** inactive

**Q.** With CC(C)c1ccc2[nH]c(O)c(N=NC(=S)NCCc3ccccc3)c2c1 as the molecule, how does the Potency read?
**A.** inconclusive [activator, partial curve, poor fit]

**Q.** Which Potency does the source give for CC(OC(=O)Cc1c[nH]c2ccccc12)C(=O)NC1CCCCC1C (stereo not drawn) here?
**A.** inactive

**Q.** Which Potency does the source give for O=C(Nc1ccc2nc3n(c(=O)c2c1)CCCC3)c1cc([N+](=O)[O-])ccc1F here?
**A.** active: 14.6 µM

**Q.** For CCOC(=O)N1CCN(C(=O)c2ccc(C)c(S(=O)(=O)Nc3ccccc3)c2)CC1, which Potency is on record?
**A.** inconclusive [activator, partial curve, poor fit]

**Q.** For CCCCN(C)C(=O)c1ccc2c(c1)S(=O)(=O)c1ccccc1C2=O, which Potency is on record?
**A.** inactive

**Q.** With N#C/C(=C\c1ccc(Cl)c([N+](=O)[O-])c1)c1ccccn1 as the molecule, how does the Potency read?
**A.** inconclusive [activator, single point]

**Q.** With CC(=NNC(=S)N1CCN(C2CCCCCC2)CC1)c1ccccn1 as the molecule, how does the Potency read?
**A.** active: 16.4 µM

**Q.** Which Potency does the source give for Cc1cc2nc(CSc3ccc(Cl)cc3)cc(=O)n2[nH]1 here?
**A.** inconclusive [activator, single point]

**Q.** With C=CCn1cc(/C=N/N2C(=O)C3C4C=CC(C4)C3C2=O)c2ccccc21 (stereo not drawn) as the molecule, how does the Potency read?
**A.** inconclusive [activator, full curve, poor fit]

**Q.** With OCc1ccccc1O as the molecule, how does the Potency read?
**A.** inactive

**Q.** With Cn1cccc1CC(=O)N/N=C/c1ccc(C(C)(C)C)cc1 as the molecule, how does the Potency read?
**A.** inconclusive [activator, full curve, poor fit]

**Q.** With Cc1ccccc1OCC(=O)Nc1ccc2c(c1)C(=O)c1ccccc1C2=O as the molecule, how does the Potency read?
**A.** inconclusive [activator, full curve]

**Q.** With CCC[C@@H]1Cc2ccccc2N1C(C)=O as the molecule, how does the Potency read?
**A.** inactive

**Q.** With CC(C)S(=O)(=O)c1csc(NC(=O)Nc2ccc(Cl)cc2)c1 as the molecule, how does the Potency read?
**A.** inactive

**Q.** Which Potency does the source give for O=C(CSc1nccn1Cc1ccc(F)cc1)Nc1ccc(F)cc1F here?
**A.** inactive

**Q.** For Cc1ccc(C)c(OCc2cc(C(=O)N3C[C@@H](C)O[C@@H](C)C3)no2)c1, which Potency is on record?
**A.** inconclusive [activator, single point]

**Q.** For O=C(N/N=C/c1ccccc1)c1n[nH]c2c1CCCC2, which Potency is on record?
**A.** inconclusive [activator, single point]

**Q.** With O=C1c2cccc3cccc(c23)C(=O)N1CCN1CCN(CC(O)COc2ccc3ccccc3c2)CC1 (stereo not drawn) as the molecule, how does the Potency read?
**A.** inconclusive [activator, single point]

**Q.** With CCCCn1c(N)c(N(CCC(C)C)C(=O)CSc2nc3ccccc3n2C)c(=O)[nH]c1=O as the molecule, how does the Potency read?
**A.** inconclusive [activator, partial curve, poor fit]

**Q.** With CCCNC(=O)COC(=O)c1ccccc1C(=O)c1ccc(Cl)c([N+](=O)[O-])c1 as the molecule, how does the Potency read?
**A.** inconclusive [activator, full curve, poor fit]

**Q.** With COc1cc(C(=O)OCC(=O)NC23CC4CC(CC(C4)C2)C3)cc(OC)c1OC as the molecule, how does the Potency read?
**A.** inconclusive [activator, partial curve, poor fit]

**Q.** With CCOc1ccccc1-n1nnnc1SCc1nc2ccccc2s1 as the molecule, how does the Potency read?
**A.** inconclusive [activator, single point]

**Q.** For Cc1ccc(C)c(OCc2cc(C(=O)N(C)Cc3nccs3)no2)c1, which Potency is on record?
**A.** inactive

**Q.** With NS(=O)(=O)c1ccc(CNC(=O)/C=C/c2ccc(S(=O)(=O)N3CCOCC3)cc2)cc1 as the molecule, how does the Potency read?
**A.** inactive

**Q.** For O=C(NCc1ccccn1)c1ccc(CS(=O)(=O)Cc2ccc(Cl)cc2)o1, which Potency is on record?
**A.** inconclusive [activator, full curve, poor fit]

**Q.** Which Potency does the source give for Cc1ccccc1-n1ncc2c1CC(C)(C)CC2NC(=O)CCN1Cc2ccccc2C1=O (stereo not drawn) here?
**A.** inactive

**Q.** Which Potency does the source give for CCN(CC)S(=O)(=O)c1ccc(O)c(NC(=O)c2cc(-c3cc(OC)c(OC)c(OC)c3)nc3ccccc23)c1 here?
**A.** active: 18.4 µM

**Q.** Which Potency does the source give for O=C(CCNC(=O)Cn1ccc2ccccc2c1=O)NCCCN1CCN(c2ccc(F)cc2)CC1 here?
**A.** inactive

**Q.** For CCOC(=O)CSc1nc2cc(OC)ccc2cc1C#N, which Potency is on record?
**A.** inconclusive [activator, partial curve]

**Q.** For OC[C@@H]1[C@@H](c2ccccc2)C(c2ccccc2)=NN1c1ccccc1, which Potency is on record?
**A.** inconclusive [activator, full curve, poor fit]

**Q.** With CCNC(=O)C1=C(O)c2sccc2N(C)S1(=O)=O as the molecule, how does the Potency read?
**A.** inactive

**Q.** Which Potency does the source give for Cc1cc(C)nc(NS(=O)(=O)c2ccc(N/C=C\C(=O)c3ccc(Cl)cc3)cc2)n1 here?
**A.** inconclusive [activator, partial curve, poor fit]

**Q.** For COc1ccc(C(=O)O/N=C/c2c(C(F)(F)F)nn(C)c2SCc2ccccc2Cl)cc1, which Potency is on record?
**A.** inconclusive [activator, full curve]

**Q.** For COc1cc(C(=O)Oc2ccccc2/C=N/NC(=O)c2ccc(Cl)cc2Cl)cc(OC)c1OC, which Potency is on record?
**A.** inconclusive [activator, single point]

**Q.** For O=C(C(Cl)Cl)N1CCN(Cc2ccc3c(c2)OCO3)CC1, which Potency is on record?
**A.** inconclusive [activator, partial curve, poor fit]

**Q.** Which Potency does the source give for Cn1c(CCN2CCCC2)nc2cc(NS(=O)(=O)c3ccc(Cl)cc3)ccc21 here?
**A.** inconclusive [activator, single point]

**Q.** Which Potency does the source give for CCCCN=C1SC(C(=O)Nc2sc3c(c2C(=O)OC)CCC3)C(N)=C1C(=O)N1CCOCC1 (stereo not drawn) here?
**A.** active: 20.6 µM

**Q.** For Cc1cccc(C)c1N(CC(=O)Nc1cc(Cl)ccc1Oc1ccccc1)S(C)(=O)=O, which Potency is on record?
**A.** inactive

**Q.** With COc1ccc(CCN2C(=O)c3[nH]nc(-c4ccccc4O)c3C2c2ccc(C)cc2)cc1OC (stereo not drawn) as the molecule, how does the Potency read?
**A.** inconclusive [activator, single point]

**Q.** For CCCC(C)NC(=O)C1CCN(S(=O)(=O)c2ccccc2)CC1 (stereo not drawn), which Potency is on record?
**A.** inactive

**Q.** For Cc1[nH]c(-c2ccc(F)cc2)cc1C(=O)N1CCN(c2ccccc2F)CC1, which Potency is on record?
**A.** inconclusive [activator, single point]

**Q.** With c1ccc2c(c1)ncn2-c1ccc(-c2ccnc(-c3ccncc3)n2)cc1 as the molecule, how does the Potency read?
**A.** inconclusive [activator, partial curve, poor fit]

**Q.** With Cc1cc(S(=O)(=O)N2CCN(c3ccccc3C)CC2)ccc1F as the molecule, how does the Potency read?
**A.** inactive

**Q.** For O=C(O)CCn1cc(/C=C/C(=O)c2ccc(Cl)cc2)c(-c2cccc(Br)c2)n1, which Potency is on record?
**A.** active: 4.11 µM

**Q.** For CCOc1ccccc1NC(=O)CSc1nc2c(c(=O)n1C)SC(C)C2 (stereo not drawn), which Potency is on record?
**A.** inactive

**Q.** Which Potency does the source give for CCSc1nnc(NC(=O)Nc2cccc(C)c2)s1 here?
**A.** inconclusive [activator, single point]

**Q.** Which Potency does the source give for Cc1ccc(Cc2cnc(N3C(=N)SC(c4ccccc4)C3=O)s2)cc1 (stereo not drawn) here?
**A.** inconclusive [activator, single point]

**Q.** With CCc1ccc2c(CN(C)Cc3ccc(OC(F)F)c(OC)c3)cc(=O)oc2c1 as the molecule, how does the Potency read?
**A.** inconclusive [activator, single point]

**Q.** For CCN(Cc1ccccc1)C(=O)c1c(-c2ccccc2Cl)noc1C, which Potency is on record?
**A.** inactive

**Q.** With COc1ccc(Nc2nc(-c3cccs3)cs2)cc1 as the molecule, how does the Potency read?
**A.** inconclusive [activator, partial curve]

**Q.** For FC(F)(F)c1ccnc(N2CCN(Cc3cnc(-c4ccccc4)[nH]3)CC2)c1, which Potency is on record?
**A.** inconclusive [activator, full curve, poor fit]

**Q.** For COc1ccc2sc(-c3ccc(S(C)(=O)=O)cc3)c(-c3ccc(C(N)=O)cc3)c2c1, which Potency is on record?
**A.** active: 25.9 µM
